Results reported in PubChem BioAssay AID1460 (National Center for Advancing Translational Sciences (NCATS), 2008).
The whole screen tested about 270,000 compounds, of which about 5,800 (2.1%) were called active. Inconclusive results, whose numbers are uncertain, are shown with a selection of clear calls. Calls follow the shape of the dose curve; as a rule, active = well fitted inhibition curve with a large enough effect; inconclusive = small, poorly fitted or top-dose-only effect; inactive = flat fitted curve, though single readings scatter. A potency beside an inconclusive call is a rough fit, not a confirmed value.

Biological target: Microtubule-associated protein tau (Homo sapiens) (UniProt P10636)
Sequence of UniProt P10636 (P10636 whole entry, looked up): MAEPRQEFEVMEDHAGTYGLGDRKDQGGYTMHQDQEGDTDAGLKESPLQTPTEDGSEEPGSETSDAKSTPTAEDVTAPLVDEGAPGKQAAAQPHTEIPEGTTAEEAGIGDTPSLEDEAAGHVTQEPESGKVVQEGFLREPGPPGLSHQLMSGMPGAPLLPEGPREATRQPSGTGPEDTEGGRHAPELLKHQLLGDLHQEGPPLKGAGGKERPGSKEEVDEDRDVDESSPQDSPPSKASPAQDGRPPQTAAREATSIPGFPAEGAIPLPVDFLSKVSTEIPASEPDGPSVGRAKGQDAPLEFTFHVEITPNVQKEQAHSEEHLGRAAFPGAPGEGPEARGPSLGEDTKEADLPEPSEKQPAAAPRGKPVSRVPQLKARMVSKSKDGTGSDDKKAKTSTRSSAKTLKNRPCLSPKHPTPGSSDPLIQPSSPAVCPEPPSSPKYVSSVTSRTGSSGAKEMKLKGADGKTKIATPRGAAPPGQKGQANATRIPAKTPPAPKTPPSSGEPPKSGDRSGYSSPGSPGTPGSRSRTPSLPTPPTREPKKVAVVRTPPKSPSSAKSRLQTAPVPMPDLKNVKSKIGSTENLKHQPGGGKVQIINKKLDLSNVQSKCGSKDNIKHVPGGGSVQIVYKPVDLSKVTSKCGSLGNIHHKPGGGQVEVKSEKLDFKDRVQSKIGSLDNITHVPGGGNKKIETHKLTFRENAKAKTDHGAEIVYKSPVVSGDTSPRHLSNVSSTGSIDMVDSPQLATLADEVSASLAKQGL
Assay: qHTS for Inhibitors of Tau Fibril Formation, Thioflavin T Binding; also: nearly all actives have a fitted effect of over 55% in size
Details: recombinant tau K18 P301L (four-repeat tau fragment), heparin-induced fibrillization, ThT fluorescence; series mostly up to 57.4 µM; activity, negative = inhibition: at the top concentration
Description: NIH Molecular Libraries Probe Production Network [MLPCN]
NIH Chemical Genomics Center [NCGC]
Assay Provider: Carlo Ballatore, University of Pennsylvania
The microtubule-associated protein tau is an abundant protein in the axons of neurons that stabilizes microtubules. With its ability to modulate microtubule dynamics, tau contributes directly or indirectly, to key structural and regulatory cellular functions. Particularly important is the influence tau exerts on axonal transport, which allows signaling molecules, trophic factors and other essential cellular constituents to travel along the axons. Under pathological conditions, tau becomes sequestered into insoluble aggregates called neurofibrillary tangles. This phenomenon is believed to have pathological consequences by promoting axonal transport deficits that ultimately lead to synaptic dysfunction and neuronal loss. To identify inhibitors of tau aggregation, a heparin-induced tau fibril formation assay was used that employed a recombinantly expressed fragment of tau, K18 (Q242-E372), bearing a P301L mutation (Gustke et al. 1994; Hong et al. 1998). This assay monitors tau fibrillization by Thioflavin T (ThT) fluorescence.
Gustke, N., B. Trinczek, et al. (1994). "Domains of tau protein and interactions with microtubules." Biochemistry 33(32): 9511-22.
Hong, M., V. Zhukareva, et al. (1998).
Li, W. and V. M. Lee (2006).
von Bergen, M., S. Barghorn, et al. (2001). "Mutations of tau protein in frontotemporal dementia promote aggregation of paired helical filaments by enhancing local beta-structure." J Biol Chem 276(51): 48165-74.
NCGC Assay Protocol Summary:
For screening, 2 uL/well human K18 P301L (15 uM unlabeled and 0.24 uM Alexa 594-labeled tau, final concentrations) in reagent buffer (100 mM sodium acetate pH 7) was dispensed into black solid 1536-well plates (Grenier) using a solenoid-based dispenser. Following transfer of 23 nL compound or DMSO vehicle by a pin tool, 2 uL/well heparin (20 uM final concentration) in reagent buffer was added and the plate centrifuged 15 s at 1000 RPM. Plates were incubated 6 hr at 37 C and then 1 uL/well ThT (30 uM final concentration) was added. After a 1 hr ambient incubation, the plates were read by an Envision (Perkin Elmer) to monitor ThT fluorescence (450/8 nm excitation and 510/23 nm emission).
Keywords: NIH Roadmap, MLPCN, MLI, MLSMR, NCGC, qHTS, tau, tauopathies, Alzheimer's disease, fibril, neurodegeneration, aggregation
% is scaled to controls: 0 for no effect and ±100 for the full control effect; potency is read from the fitted curve at half-maximal effect; tags tell the direction and shape of the fitted curve.

SMILES	activity, negative = inhibition	Potency
COC(=O)C(Cc1ccccc1)NC(=O)C(CC(C)C)NC(=O)OC(C)(C)C (stereo not given)	inactive: 1.07%	–
CC(C)OCCCn1c(SCc2ccccc2C#N)nc2c(sc3ccccc32)c1=O	inactive: -2.72%	–
CCOc1ccc(NC(=O)c2cc3n(n2)C(C(F)(F)F)CC(c2ccco2)N3)cc1 (stereo not given)	–	inconclusive: 12.6 µM [inhibitor, partial curve]
COc1ccccc1Nc1nc(-c2cccc(N3C(=O)c4ccccc4C3=O)c2)cs1	–	inconclusive: 3.55 µM [inhibitor, full curve]
CCC(C)NS(=O)(=O)c1ccc(OCC(=O)Nc2ccc(F)cc2F)cc1 (stereo not given)	inactive: -0.826%	–
CCOc1ccc(/C=C/c2nc(C#N)c(N3CCN(c4ccc(OC)cc4)CC3)o2)cc1	inactive: -9.7%	–
CCCCNc1nc(C)nc2c1nc(-c1ccccc1)n2CC(C)(C)CN(C)C	inactive: -0.667%	–
Cc1oc(C(C)(C)C)cc1C(=O)NC(Cc1ccccc1)C(=O)O (stereo not given)	inactive: 4.57%	–
COc1cc2c(OC(C)=O)c3c(c(-c4ccc5c(c4)OCO5)c2cc1OC)C(=O)OC3	–	inconclusive: 39.8 µM [inhibitor, single point]
COCC(=O)Oc1c(Sc2ccc(C)cc2)c(C)nn1C(C)(C)C	–	inconclusive: 20 µM [inhibitor, partial curve, poor fit]
C/C(=N\Nc1ccc(S(N)(=O)=O)cc1[N+](=O)[O-])c1ccco1	–	active: 5.01 µM
COC(=O)C1=CN(Cc2ccc(OC)cc2)C=C(C(=O)OC)C1c1cccs1	–	inconclusive: 44.7 µM [inhibitor, single point]
S=c1[nH]nc(C23CC4CC(CC(C4)C2)C3)n1Cc1ccco1	inactive: -4.91%	–
Cc1nn(C(=O)c2cccc([N+](=O)[O-])c2C)c(C)c1S(=O)(=O)N1CCOCC1	–	inconclusive: 15.8 µM [inhibitor, partial curve]
CC1(C)Oc2ccccc2OC1(O)c1ccc2ccccc2n1 (stereo not given)	inactive: -9.59%	–
COc1ccc(N2CCN(C(=O)CCC(=O)c3cc(C)sc3C)CC2)cc1	–	inconclusive: 14.1 µM [inhibitor, partial curve, poor fit]
Cc1ccc(-n2ncc3c(=O)n(-c4ccc(C)c(C)c4)c(-c4ccco4)nc32)cc1	–	inconclusive: 31.6 µM [inhibitor, single point]
N#CC1=C(N)Oc2c(ccc3cccnc23)C1c1cccnc1 (stereo not given)	–	inconclusive: 28.2 µM [inhibitor, single point]
O=C(N/N=C/c1ccccc1C(=O)O)c1cc(-c2ccc3c4c(cccc24)CC3)n[nH]1	–	inconclusive: 7.08 µM [inhibitor, partial curve]
O=C1c2ccccc2C(=O)C1(c1ccccc1)N1CCN(c2cccc(Cl)c2)CC1	inactive: -5.21%	–
